Laboratory results: US10941208B2, “Anti-MUC16 antibodies” (Regeneron Pharmaceuticals, Inc., priority 2016, dated 2021)

Test system: mouse MUC16
Test: Binding to mouse MUC16

B1: BSMUC16/CD3-005: anti-MUC16×CD3 bispecific, modified (chimeric) IgG4 Fc; H1H8767P HCVR (SEQ 18), CD3-VH-G20 (SEQ 1866), common LCVR SEQ 26 (antibody, V domains shown)
VH 1: QVQLVESGGGLVKPGGSLRLSCAASGFTFSNYYMSWVRQAPGKGLEWISYISGRGSTIFYADSVKGRITISRDNAKNSLFLQMNSLRAEDTAVYFCVKDRGGYSPYWGQGTLVTVSS
VH 2: EVQLVESGGGLVQPGRSLRLSCAASGFTFDDYSMHWVRQAPGKGLEWVSGISWNSGSIGYADSVKGRFTISRDNAKNSLYLQMNSLRAEDTALYYCAKYGSGYGKFYYYGMDVWGQGTTVTVSS
VL: [… about 100 residues …]PITFGQGTRLEIK
  binding to mouse MUC16: Neither BSMUC16/CD3-001 or BSMUC16/CD3-005 bind mouse MUC16 or mouse CD3
